Here are results for four molecules from PubChem BioAssay (NCI).

Molecules are shown by their SMILES.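 Exposure lasted 48 hours, with cells grown in 96-well plates and compounds tested at five concentrations. GI50 = concentration required for 50% inhibition of growth. At the TGI there is no net growth.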

This assay deals with NCI-H322M lung. Put plainly: DTP human tumour cell line panel, 48 h.
For the molecule `CC1=C2C(=C[C@@](C)(COC(=O)c3ccc(S(=O)(=O)F)cc3)[C@@H]2O)C(=O)[C@](C)(O)C12CC2`, the GI50 was 2.43 µM and the TGI is 8.29 µM.

Regarding `COc1ccc(NC2=C(Cl)C(=O)C(C)=C(C)C2=O)cc1`, the GI50 was 33.3 µM and the TGI is more than 100 µM.

Take `O=C(N/N=C/c1cccs1)c1[nH]c2ccc(Br)cc2c1-c1ccccc1`: the GI50 was 0.503 µM and the TGI was more than 100 µM.

In the case of `CC(C)C(=O)Nc1ccc(-c2nc(-c3cccc(O)c3)c(-c3ccnc(Br)c3)[nH]2)cc1`, the GI50 is 1.22 µM and the TGI came out at 9.96 µM.

What is called GI50 is the concentration giving 50% growth inhibition. As usually defined, the TGI is the concentration giving total growth inhibition. Lower therefore signals greater sensitivity of the cells.
